Where a chain is given by its changes, count along the chain named. Results are given in words; binding and its absence hold for the method and conditions named. In cells and extracts the contact can be indirect. Some results given as binding are weak or reduced against the parent protein; the word gives no strength. For some of these results: Sequences can lack the tags named with a protein.
Assays:
[1] = molecular target: T1, SF-IL-17RC^MutE (all nine putative N-glycosylation sites mutated) (mouse) (UniProt Q8K4C2); test: co-IP; anti-FLAG M2 agarose IP from 1% DDM lysates of ST2 cells retrovirally transduced with an SF-tagged receptor, immunoblot for endogenous proteins; cells unstimulated (SF-IL-17RC also after IL-17A 500 ng/ml for 15 min, unchanged)
T1 sequence (chain, fully deglycosylated form of 85 kDa): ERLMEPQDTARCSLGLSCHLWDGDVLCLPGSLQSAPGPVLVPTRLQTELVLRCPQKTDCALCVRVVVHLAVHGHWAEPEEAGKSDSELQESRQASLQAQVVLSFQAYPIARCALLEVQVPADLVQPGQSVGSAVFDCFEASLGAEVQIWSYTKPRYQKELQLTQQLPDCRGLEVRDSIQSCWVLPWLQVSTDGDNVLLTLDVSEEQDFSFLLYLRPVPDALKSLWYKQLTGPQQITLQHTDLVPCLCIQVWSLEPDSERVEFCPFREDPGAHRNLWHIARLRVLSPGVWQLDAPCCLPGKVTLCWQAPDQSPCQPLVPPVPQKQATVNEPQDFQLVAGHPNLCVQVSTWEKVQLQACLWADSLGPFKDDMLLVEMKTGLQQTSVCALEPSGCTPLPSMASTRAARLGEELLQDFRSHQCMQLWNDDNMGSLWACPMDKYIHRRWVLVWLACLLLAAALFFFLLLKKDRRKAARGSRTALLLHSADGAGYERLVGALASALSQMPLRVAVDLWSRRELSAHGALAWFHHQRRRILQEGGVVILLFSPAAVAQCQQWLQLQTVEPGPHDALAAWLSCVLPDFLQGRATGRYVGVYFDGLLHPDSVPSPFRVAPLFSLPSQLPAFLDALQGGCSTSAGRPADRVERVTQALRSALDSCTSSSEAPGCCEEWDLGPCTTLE

Sequences of proteins named here, by UniProt entry; tags and fusion partners are left off. A change or cut given only in a name is not applied to a line headed by its entry.
UniProt Q60943: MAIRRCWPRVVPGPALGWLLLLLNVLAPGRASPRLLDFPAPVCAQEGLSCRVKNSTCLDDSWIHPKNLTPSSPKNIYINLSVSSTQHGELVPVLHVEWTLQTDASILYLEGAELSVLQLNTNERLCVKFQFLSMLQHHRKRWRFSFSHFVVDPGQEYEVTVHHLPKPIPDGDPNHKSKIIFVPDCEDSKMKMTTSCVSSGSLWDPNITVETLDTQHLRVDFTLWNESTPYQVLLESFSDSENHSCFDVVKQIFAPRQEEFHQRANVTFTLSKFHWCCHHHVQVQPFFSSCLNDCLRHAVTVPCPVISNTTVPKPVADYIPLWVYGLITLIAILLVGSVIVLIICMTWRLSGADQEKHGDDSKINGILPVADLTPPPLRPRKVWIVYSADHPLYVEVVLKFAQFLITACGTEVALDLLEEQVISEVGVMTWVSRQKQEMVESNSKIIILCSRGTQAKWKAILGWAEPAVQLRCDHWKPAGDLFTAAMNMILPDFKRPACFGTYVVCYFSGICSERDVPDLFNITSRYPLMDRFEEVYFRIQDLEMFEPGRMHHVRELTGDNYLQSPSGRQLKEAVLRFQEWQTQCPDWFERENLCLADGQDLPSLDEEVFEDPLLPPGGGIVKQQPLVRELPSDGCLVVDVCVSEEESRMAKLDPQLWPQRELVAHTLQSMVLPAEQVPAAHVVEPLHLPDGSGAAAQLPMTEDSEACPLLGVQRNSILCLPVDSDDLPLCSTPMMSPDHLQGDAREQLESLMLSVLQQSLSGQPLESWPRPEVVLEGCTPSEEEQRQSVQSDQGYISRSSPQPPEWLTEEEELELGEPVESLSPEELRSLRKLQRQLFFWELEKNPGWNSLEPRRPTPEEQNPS
UniProt Q8CJ61: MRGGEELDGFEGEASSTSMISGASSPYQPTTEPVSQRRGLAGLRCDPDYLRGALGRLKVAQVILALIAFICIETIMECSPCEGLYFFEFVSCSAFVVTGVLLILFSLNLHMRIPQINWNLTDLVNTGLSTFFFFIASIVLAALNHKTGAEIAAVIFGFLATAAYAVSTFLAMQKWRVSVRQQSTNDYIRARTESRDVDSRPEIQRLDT

[2] = molecular target: T2, SF-IL-17RC (murine IL-17RC with C-terminal 2xStrep-3xFlag tag), in ST2 cells (mouse) (UniProt Q8K4C2); test: as above
T2 sequence (chain, N-glycosylated (100 kDa and 150 kDa forms)): T1 sequence (chain, fully deglycosylated form of 85 kDa) with Q93N, Q161N, Q188N, Q228N, Q234N, Q238N, Q324N, Q380N, Q381N

[3] = molecular target: T3, SF-IL-17RC^TmRA (IL-17RC with the transmembrane domain of IL-17RA) (mouse) (UniProt Q8K4C2+Q60943); test: as above
T3 sequence: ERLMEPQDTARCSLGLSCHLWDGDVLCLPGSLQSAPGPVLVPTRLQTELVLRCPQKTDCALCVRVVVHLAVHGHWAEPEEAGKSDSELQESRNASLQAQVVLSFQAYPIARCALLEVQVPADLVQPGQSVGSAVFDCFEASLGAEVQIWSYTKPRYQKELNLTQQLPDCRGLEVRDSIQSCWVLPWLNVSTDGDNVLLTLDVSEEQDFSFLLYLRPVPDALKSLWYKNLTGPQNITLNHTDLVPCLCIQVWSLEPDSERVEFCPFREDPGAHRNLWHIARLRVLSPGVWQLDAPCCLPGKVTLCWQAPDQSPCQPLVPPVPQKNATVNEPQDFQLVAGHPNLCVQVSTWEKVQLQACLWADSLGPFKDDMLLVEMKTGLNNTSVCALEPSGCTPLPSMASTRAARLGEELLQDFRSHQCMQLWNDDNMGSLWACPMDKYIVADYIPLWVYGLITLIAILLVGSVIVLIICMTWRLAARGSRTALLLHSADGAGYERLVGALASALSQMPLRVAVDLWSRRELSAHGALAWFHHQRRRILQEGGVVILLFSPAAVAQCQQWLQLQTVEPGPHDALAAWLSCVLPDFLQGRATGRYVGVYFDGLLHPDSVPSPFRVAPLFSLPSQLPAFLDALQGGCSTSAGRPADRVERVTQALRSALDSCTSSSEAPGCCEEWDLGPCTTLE

[4] = molecular target: T4, IL-17RC (endogenous, mouse ST2 cells) (mouse (endogenous in ST2)) (UniProt Q8K4C2); test: co-IP; IP with IL-17RC antibody (isotype control antibody beside it) and Protein A/G PLUS agarose from lysates of ST2 cells, unstimulated or stimulated with IL-17A (500 ng/ml, 15 min), immunoblot
T4 sequence (chain, glycosylated (forms of approximately 100 kDa and 150 kDa)): T1 sequence (chain, fully deglycosylated form of 85 kDa) with Q93N, Q161N, Q188N, Q228N, Q234N, Q238N, Q324N, Q380N, Q381N

binding [1]: binds | binding [2]: binds | binding [3]: no binding | binding [4]: binds
Substance: CMTM4 (endogenous, mouse ST2 cells) (from UniProt Q8CJ61 1-208)
